# From the supplement of paper PMC8728848
# The other results are listed elsewhere or left out.
# Assays:
# Assay in all cases: glycan array binding signal (z-score within array); higher = stronger binding
# Details in all cases: glycan notation: IUPAC condensed, linker removed
# Fuc(a1-2)Gal = target: Fuc(a1-2)Gal
# How it was run: (§1)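 The Consortium for Functional Glycomics database supplied 3228 glycan arrays, of which those lacking an available protein sequence were dropped. The binding signal, a within-array Z-score, was averaged across arrays of the same protein sequence and across linkers. Negative scores can be read as non-binding.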
# Fuc(a1-2)Gal(b1-3)GalNAc = target: Fuc(a1-2)Gal(b1-3)GalNAc
# How it was run: as §1
# [1] = target: Fuc(a1-2)Gal(b1-3)GalNAc(b1-3)Gal
# How it was run: as §1
# [2] = target: Fuc(a1-2)Gal(b1-3)GalNAc(b1-3)Gal(a1-4)Gal(b1-4)Glc
# How it was run: as §1
# [3] = target: Fuc(a1-2)Gal(b1-3)GalNAc(b1-4)[Neu5Ac(a2-3)]Gal(b1-4)Glc
# How it was run: as §1
# Fuc(a1-2)Gal(b1-3)GlcNAc = target: Fuc(a1-2)Gal(b1-3)GlcNAc
# How it was run: as §1
# [4] = target: Fuc(a1-2)Gal(b1-3)GlcNAc(b1-3)Gal(b1-4)Glc
# How it was run: as §1
# [5] = target: Fuc(a1-2)Gal(b1-3)[Fuc(a1-4)]GlcNAc
# How it was run: as §1
# Fuc(a1-2)Gal(b1-4)Glc = target: Fuc(a1-2)Gal(b1-4)Glc
# How it was run: as §1
# Fuc(a1-2)Gal(b1-4)GlcNAc = target: Fuc(a1-2)Gal(b1-4)GlcNAc
# How it was run: as §1
# [6] = target: Fuc(a1-2)Gal(b1-4)GlcNAc(b1-3)Gal(b1-4)GlcNAc
# How it was run: as §1
# [7] = target: Fuc(a1-2)Gal(b1-4)GlcNAc(b1-3)Gal(b1-4)GlcNAc(b1-3)Gal(b1-4)GlcNAc
# How it was run: as §1
# [8] = target: Fuc(a1-2)Gal(b1-4)[Fuc(a1-3)]GlcNAc
# How it was run: as §1
# [9] = target: Fuc(a1-2)Gal(b1-4)[Fuc(a1-3)]GlcNAc(b1-3)Gal(b1-4)[Fuc(a1-3)]GlcNAc
# How it was run: as §1
# [10] = target: Fuc(a1-2)Gal(b1-4)[Fuc(a1-3)]GlcNAc(b1-3)Gal(b1-4)[Fuc(a1-3)]GlcNAc(b1-3)Gal(b1-4)[Fuc(a1-3)]GlcNAc
# How it was run: as §1
# Fuc(a1-2)GlcNAc = target: Fuc(a1-2)GlcNAc
# How it was run: as §1
# Fuc(a1-2)[Gal(a1-3)]Gal = target: Fuc(a1-2)[Gal(a1-3)]Gal
# How it was run: as §1
# [11] = target: Fuc(a1-2)[Gal(a1-3)]Gal(b1-3)GlcNAc
# How it was run: as §1
# [12] = target: Fuc(a1-2)[Gal(a1-3)]Gal(b1-4)Glc
# How it was run: as §1
# [13] = target: Fuc(a1-2)[Gal(a1-3)]Gal(b1-4)GlcNAc
# How it was run: as §1
# [14] = target: Fuc(a1-2)[Gal(a1-3)]Gal(b1-4)[Fuc(a1-3)]GlcNAc
# How it was run: as §1
# [15] = target: Fuc(a1-2)[Gal(a1-4)]Gal(b1-4)GlcNAc
# How it was run: as §1
# [16] = target: Fuc(a1-2)[GalNAc(a1-3)]Gal
# How it was run: as §1
# [17] = target: Fuc(a1-2)[GalNAc(a1-3)]Gal(b1-3)GlcNAc
# How it was run: as §1
# [18] = target: Fuc(a1-2)[GalNAc(a1-3)]Gal(b1-4)Glc
# How it was run: as §1
# [19] = target: Fuc(a1-2)[GalNAc(a1-3)]Gal(b1-4)GlcNAc
# How it was run: as §1
# [20] = target: Fuc(a1-2)[GalNAc(a1-3)]Gal(b1-4)[Fuc(a1-3)]GlcNAc
# How it was run: as §1
# [21] = target: Fuc(a1-2)[GalNAc(a1-4)]Gal(b1-4)GlcNAc
# How it was run: as §1
# [22] = target: Fuc(a1-2)[GalNAc(b1-3)]Gal
# How it was run: as §1
# Fuc(a1-3)GlcNAc = target: Fuc(a1-3)GlcNAc
# How it was run: as §1
binder,measurement,setting,value
MAL (Maackia amurensis) (protein) SDELSFTINNFMPNQGDLLFQGVATVSPTGVLQLTSEENGQPLEYSVGRVLYTAPVRIWDSTTGAVASFSTSFTFVVKAARGASDGLAFFLAPPDSQIPSGSVSKYLGLFNNSNSDSSNQIVAVEFDTYFGHSYDPWDPNYRHIGIDVNGIESIKTVQWDWINGGVAFATITYLAPNKTLIASLVYPSNQTSFIVAASVDLKEILPEWVRVGFSAATGAPKAVETHDVRSWSFTSTLEANSPADVDN,glycan array binding signal (z-score),Fuc(a1-2)Gal,-0.422
same,glycan array binding signal (z-score),Fuc(a1-2)Gal(b1-3)GalNAc,-0.341
same,glycan array binding signal (z-score),[1],-0.382
same,glycan array binding signal (z-score),[2],-0.435
same,glycan array binding signal (z-score),[3],-0.271
same,glycan array binding signal (z-score),Fuc(a1-2)Gal(b1-3)GlcNAc,-0.366
same,glycan array binding signal (z-score),[4],-0.402
same,glycan array binding signal (z-score),[5],-0.38
same,glycan array binding signal (z-score),Fuc(a1-2)Gal(b1-4)Glc,-0.4
same,glycan array binding signal (z-score),Fuc(a1-2)Gal(b1-4)GlcNAc,-0.389
same,glycan array binding signal (z-score),[6],-0.171
same,glycan array binding signal (z-score),[7],-0.254
same,glycan array binding signal (z-score),[8],0.544
same,glycan array binding signal (z-score),[9],-0.41
same,glycan array binding signal (z-score),[10],-0.399
same,glycan array binding signal (z-score),Fuc(a1-2)GlcNAc,-0.4
same,glycan array binding signal (z-score),Fuc(a1-2)[Gal(a1-3)]Gal,-0.422
same,glycan array binding signal (z-score),[11],-0.399
same,glycan array binding signal (z-score),[12],-0.323
same,glycan array binding signal (z-score),[13],-0.419
same,glycan array binding signal (z-score),[14],-0.348
same,glycan array binding signal (z-score),[15],-0.425
same,glycan array binding signal (z-score),[16],-0.405
same,glycan array binding signal (z-score),[17],-0.376
same,glycan array binding signal (z-score),[18],-0.433
same,glycan array binding signal (z-score),[19],-0.228
same,glycan array binding signal (z-score),[20],-0.265
same,glycan array binding signal (z-score),[21],-0.429
same,glycan array binding signal (z-score),[22],-0.422
same,glycan array binding signal (z-score),Fuc(a1-3)GlcNAc,-0.417
